Assay results taken from the supplement of paper PMC9446081.
The whole screen tested about 39,000 compounds, of which about 220 (0.56%) showed activity. This is one part of the list.

Each compound was assayed on Escherichia coli K-12 BW25113 (assay: relative growth (OD600 normalised to plate interquartile mean) (fraction); higher = less growth inhibition, active = 0.2 or less). Conditions: 50 µM; LB; incubation time: overnight (16-24 h).
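Note: static incubation at 37 °C against the wild-type strain, values averaged over two biological replicates.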

Compound	relative growth
Cc1cc(C)c(/N=c2\scc(C)n2Cc2ccccc2)c(C)c1	inactive: 1
C[C@H](CO)N1C[C@H](C)[C@@H](CN(C)Cc2cccc(C(=O)Nc3ccccc3N)c2)OCc2ccccc2-c2c(n(C)c3ccccc23)C1=O	inactive: 0.996
O[C@@H]1[C@@H](O)[C@H]2OC[C@@H](O2)[C@H]1O	inactive: 0.993
Cc1o[nH]c(=O)c1CC[C@@H](N)C(=O)O	inactive: 0.992
Cc1ccc(S(=O)(=O)N(C)C[C@H]2OCCCC[C@@H](C)Oc3ccc(NC(=O)Nc4c(C)noc4C)cc3C(=O)N([C@@H](C)CO)C[C@@H]2C)cc1	inactive: 0.961
Cc1noc(C)c1NC(=O)N(C)C[C@H]1Oc2c(NS(C)(=O)=O)cccc2C(=O)N([C@H](C)CO)C[C@@H]1C	inactive: 1.01
C[C@H]1CCCCO[C@H](CN(C)C(=O)Nc2ccc(F)cc2)[C@@H](C)CN([C@@H](C)CO)C(=O)c2cc(NS(=O)(=O)c3ccc(Cl)cc3)ccc2O1	inactive: 0.987
C#CCCCCCCCCCCCC(O)CC(O)CO.C=CCCCCCCCCCCCC(O)CC(O)CO (stereo not given)	inactive: 0.979
O=C(C[C@H]1C[C@H]2c3cc(NS(=O)(=O)c4ccc(F)cc4)ccc3O[C@H]2[C@H](CO)O1)NCc1ccccc1	inactive: 0.995
C[C@@H]1CCCCO[C@H](CN(C)C(=O)NC2CCCCC2)[C@H](C)CN([C@H](C)CO)C(=O)c2cc(NC(=O)CCC(F)(F)F)ccc2O1	inactive: 1.02
C[C@@H]1CN([C@H](C)CO)C(=O)Cc2cc(NC(=O)CCC(F)(F)F)ccc2O[C@H]1CN(C)Cc1ccc(Oc2ccccc2)cc1	inactive: 0.99
O=C(O)/C=C/C(=O)NCc1ccccc1	inactive: 1.02
c1ncc(CC2CCNCC2)[nH]1	inactive: 0.985
C[C@@H]1CCCCO[C@@H](CN(C)C(=O)Nc2ccc3c(c2)OCO3)[C@H](C)CN([C@H](C)CO)C(=O)c2cc(NS(=O)(=O)c3ccccc3)ccc2O1	inactive: 1.04
C[C@H](CO)N1C[C@H](C)[C@@H](CN(C)Cc2ccc(Oc3ccccc3)cc2)Oc2ccc(NS(=O)(=O)c3ccccc3)cc2C1=O	inactive: 0.971
COc1ccc(S(=O)(=O)N(C)C[C@@H]2OCCCC[C@H](C)Oc3ccc(NC(=O)CCC(F)(F)F)cc3C(=O)N([C@@H](C)CO)C[C@@H]2C)cc1	inactive: 0.989
COc1ccc2c3c([nH]c2c1)[C@H](CO)N(C[C@]13CCN(CC1)S(=O)(=O)c1cn(cn1)C)C(=O)Nc1ccc(cc1)F	inactive: 0.992
O=C(CCCCCNC(=O)OC[C@]12N=C3SCC(=O)N3[C@H](c3ccccc3O1)[C@H]2COC(=O)c1ccccc1)NO	inactive: 0.996
COc1ccc(NC(=O)Nc2cccc3c2O[C@@H](CN(C)Cc2ccc(Cl)c(Cl)c2)[C@H](C)CN([C@@H](C)CO)C3=O)cc1	inactive: 1.03
C[C@H](CO)N1C[C@H](C)[C@H](CN(C)S(C)(=O)=O)Oc2cc(C#Cc3ccc(F)cc3)ccc2S1(=O)=O	inactive: 1.01

Compound	relative growth
CON=C(C(=O)NC1C(=O)N2C(C(=O)O)=C(CSC(=O)c3ccco3)CSC12)c1csc(N)n1.Cl (stereo not given)	active: 0.0447
Cc1noc(C)c1S(=O)(=O)N(C)C[C@H]1OCCCC[C@H](C)Oc2ccc(NC(=O)Nc3ccc(C(F)(F)F)cc3)cc2C(=O)N([C@H](C)CO)C[C@H]1C	inactive: 0.975
COCC(=O)Nc1ccc2c(c1)OC[C@H](C)N(Cc1ccccc1OC)C[C@H](C)[C@@H](OC)CN(C)C2=O	inactive: 0.945
COc1ccc(cc1)S(=O)(=O)N1CC[C@]2(CC1)CN([C@@H](CO)c1c2c2ccc(cc2n1C)OC)C(=O)CN(C)C	inactive: 1.03
Cc1noc(C)c1NC(=O)N(C)C[C@H]1OCCCC[C@@H](C)Oc2ccc(NS(=O)(=O)c3ccc(F)cc3)cc2C(=O)N([C@@H](C)CO)C[C@H]1C	inactive: 0.999
Cc1noc(C)c1S(=O)(=O)Nc1ccc2c(c1)C(=O)N([C@H](C)CO)C[C@H](C)[C@H](CN(C)CC1CC1)O2	inactive: 1.01
O=C(C[C@H]1C[C@@H]2c3cc(NC(=O)Nc4ccc(C(F)(F)F)cc4)ccc3O[C@@H]2[C@H](CO)O1)NCCc1ccccc1	inactive: 1.02
COc1ccc(S(=O)(=O)N(C)C[C@H]2OCCCC[C@@H](C)Oc3ccc(NC(=O)c4ccccc4)cc3C(=O)N([C@@H](C)CO)C[C@H]2C)cc1	inactive: 1.02
Cc1ccc(S(=O)(=O)N(C)C[C@H]2Oc3ncc(C#CCC(C)C)cc3C(=O)N([C@@H](C)CO)C[C@H]2C)cc1	inactive: 0.977
COc1ccc(NC(=O)N(C)C[C@@H]2OCCCC[C@@H](C)Oc3ccc(NC(=O)Nc4ccc(C(F)(F)F)cc4)cc3C(=O)N([C@@H](C)CO)C[C@H]2C)cc1	inactive: 1.04
COc1ccc(NC(=O)N(C)C[C@H]2Oc3ncc(C#CC(C)C)cc3C(=O)N([C@H](C)CO)C[C@H]2C)cc1	inactive: 1.02
OC[C@H]1CCCN1CC1CC1	inactive: 1.01
Cc1noc(C)c1S(=O)(=O)Nc1ccc2c(c1)C(=O)N([C@@H](C)CO)C[C@@H](C)[C@@H](CN(C)CC1CCCCC1)OCCCC[C@@H](C)O2	inactive: 1.04
CCCNC(=O)N1C[C@]2(CN(C2)S(=O)(=O)c2ccc(cc2)OC)c2c(n(c3cc(ccc23)OC)C)[C@@H]1CO	inactive: 1.01
C[C@@H]1CN([C@@H](C)CO)C(=O)Cc2cc(NS(=O)(=O)c3ccc(Cl)cc3)ccc2O[C@H]1CN(C)S(=O)(=O)c1cn(C)cn1	inactive: 0.982
CCC(CCC(C)C1CCC2C3CCC4CC(O)CCC4(C)C3CCC12C)C(C)C (stereo not given)	inactive: 0.904
C=C[C@H]1[C@H](O[C@H]2O[C@@H](CO)[C@@H](O)[C@@H](O)[C@@H]2O)OC=C(C(=O)OC)[C@H]1CCOC(=O)c1cc(O)c(O)c(O)c1	inactive: 1
C[C@@H]1CN([C@@H](C)CO)C(=O)c2cc(NC(=O)Nc3ccc(C(F)(F)F)cc3)ccc2O[C@@H]1CN(C)C(=O)Nc1cccc2ccccc12	inactive: 0.999
C[C@@H]1CN([C@H](C)CO)C(=O)c2cc(-c3cccnc3)cnc2O[C@@H]1CN(C)C(=O)Nc1ccc2c(c1)OCO2	inactive: 1.01
COc1ccsc1CN	inactive: 0.97

Compound	relative growth
O=C(C[C@@H]1C[C@@H]2c3cc(NC(=O)NC4CCCC4)ccc3O[C@@H]2[C@H](CO)O1)NCCN1CCCCC1	inactive: 0.984
Cc1noc(C)c1NC(=O)N(C)C[C@@H]1Oc2ccc(NC(=O)CCCN(C)C)cc2C(=O)N([C@H](C)CO)C[C@@H]1C	inactive: 1.01
CC1CCN(C(=O)N2c3ccccc3Sc3ccccc32)CC1	inactive: 0.986
C[C@H](CO)N1C[C@H](C)[C@H](CN(C)Cc2ccc(Cl)c(Cl)c2)Oc2ccc(NC(=O)Cc3cn(C)c4ccccc34)cc2CC1=O	inactive: 1.06
COc1ccc(C[C@H]2c3cc(OC)c(OC)cc3CC[N@+]2(C)CCC(=O)OCCCCCOC(=O)CC[N@+]2(C)CCc3cc(OC)c(OC)cc3[C@@H]2Cc2ccc(OC)c(OC)c2)cc1OC	inactive: 0.719
C[C@@H]1CN([C@@H](C)CO)C(=O)c2cc(-c3ccc(F)cc3)cnc2O[C@H]1CN(C)C(=O)Cc1ccccn1	inactive: 1.02
C[C@H](CO)N1C[C@H](C)[C@H](CN(C)Cc2cccc(O)c2)OCc2ccccc2-c2c(n(C)c3ccccc23)C1=O	inactive: 0.974
O=C(O)/C=C/c1ccc(O[C@@H]2O[C@H](CO)[C@@H](O)[C@H](O)[C@H]2O)cc1	inactive: 1.02
CNC[C@H]1OCCCC[C@H](C)Oc2ccc(NS(=O)(=O)c3c(C)noc3C)cc2C(=O)N([C@H](C)CO)C[C@H]1C	inactive: 1
C[C@@H]1CCCCO[C@@H](CN(C)CC2CC2)[C@@H](C)CN([C@H](C)CO)C(=O)c2cc(NC(=O)CCC(F)(F)F)ccc2O1	inactive: 0.982
Cc1ccc(S(=O)(=O)N(C)C[C@@H]2Oc3ccc(NS(=O)(=O)c4cccs4)cc3C(=O)N([C@H](C)CO)C[C@@H]2C)cc1	inactive: 1.02
C[C@@H]1CN([C@@H](C)CO)C(=O)c2cccc(NS(=O)(=O)c3cn(C)cn3)c2O[C@H]1CN(C)C(=O)Nc1ccc(F)cc1	inactive: 0.988
CC(C)(O)CC(=O)NCCn1ccc2ncnc(Nc3ccc(Oc4cccc(C(F)(F)F)c4)c(Cl)c3)c21	inactive: 0.847
C[C@H]1CN([C@@H](C)CO)C(=O)CCCn2cc(nn2)CO[C@H]1CN(C)C(=O)Nc1ccc(N2CCCCC2)cc1	inactive: 1.01
C[C@H]1CN([C@@H](C)CO)C(=O)CCCn2cc(nn2)CO[C@@H]1CN(C)S(=O)(=O)c1cccc(C#N)c1	inactive: 0.987
COc1cccc(S(=O)(=O)Nc2ccc3c(c2)C(=O)N(C)C[C@H](OC)[C@@H](C)CN(C(=O)Cc2cccnc2)[C@@H](C)CO3)c1	inactive: 1.01
Cc1cccc(-c2nc3ccccc3n2CCC(C)C)c1	inactive: 1.01
C[C@@H]1CCCCO[C@H](CN(C)S(=O)(=O)c2cccs2)[C@@H](C)CN([C@@H](C)CO)C(=O)c2cc(NC(=O)Nc3ccccc3)ccc2O1	inactive: 1.04
C[C@@H]1CN([C@H](C)CO)C(=O)c2cc(NC(=O)Cc3ccccc3)ccc2O[C@@H]1CN(C)Cc1ccc(Oc2ccccc2)cc1	inactive: 1.01
C[C@@H]1CN([C@H](C)CO)C(=O)c2ccccc2-c2ccccc2CO[C@@H]1CN(C)C(=O)Nc1ccc(-c2ccccc2)cc1	inactive: 1.02
